This is an account of results in PMC4336329 (PLoS ONE, 2015).

Structures are written as SMILES. The campaign covered roughly 310,000 compounds. About 14,000 (4.5%) showed an effect of 50% or more. The effect is printed as a negative number. The list shows a part of the results.
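Note: peak tail current of the secondary pulse compared with the same well before compound.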

human ether-à-go-go-related gene (hERG) potassium channel, sequence (Q12809 whole entry, looked up): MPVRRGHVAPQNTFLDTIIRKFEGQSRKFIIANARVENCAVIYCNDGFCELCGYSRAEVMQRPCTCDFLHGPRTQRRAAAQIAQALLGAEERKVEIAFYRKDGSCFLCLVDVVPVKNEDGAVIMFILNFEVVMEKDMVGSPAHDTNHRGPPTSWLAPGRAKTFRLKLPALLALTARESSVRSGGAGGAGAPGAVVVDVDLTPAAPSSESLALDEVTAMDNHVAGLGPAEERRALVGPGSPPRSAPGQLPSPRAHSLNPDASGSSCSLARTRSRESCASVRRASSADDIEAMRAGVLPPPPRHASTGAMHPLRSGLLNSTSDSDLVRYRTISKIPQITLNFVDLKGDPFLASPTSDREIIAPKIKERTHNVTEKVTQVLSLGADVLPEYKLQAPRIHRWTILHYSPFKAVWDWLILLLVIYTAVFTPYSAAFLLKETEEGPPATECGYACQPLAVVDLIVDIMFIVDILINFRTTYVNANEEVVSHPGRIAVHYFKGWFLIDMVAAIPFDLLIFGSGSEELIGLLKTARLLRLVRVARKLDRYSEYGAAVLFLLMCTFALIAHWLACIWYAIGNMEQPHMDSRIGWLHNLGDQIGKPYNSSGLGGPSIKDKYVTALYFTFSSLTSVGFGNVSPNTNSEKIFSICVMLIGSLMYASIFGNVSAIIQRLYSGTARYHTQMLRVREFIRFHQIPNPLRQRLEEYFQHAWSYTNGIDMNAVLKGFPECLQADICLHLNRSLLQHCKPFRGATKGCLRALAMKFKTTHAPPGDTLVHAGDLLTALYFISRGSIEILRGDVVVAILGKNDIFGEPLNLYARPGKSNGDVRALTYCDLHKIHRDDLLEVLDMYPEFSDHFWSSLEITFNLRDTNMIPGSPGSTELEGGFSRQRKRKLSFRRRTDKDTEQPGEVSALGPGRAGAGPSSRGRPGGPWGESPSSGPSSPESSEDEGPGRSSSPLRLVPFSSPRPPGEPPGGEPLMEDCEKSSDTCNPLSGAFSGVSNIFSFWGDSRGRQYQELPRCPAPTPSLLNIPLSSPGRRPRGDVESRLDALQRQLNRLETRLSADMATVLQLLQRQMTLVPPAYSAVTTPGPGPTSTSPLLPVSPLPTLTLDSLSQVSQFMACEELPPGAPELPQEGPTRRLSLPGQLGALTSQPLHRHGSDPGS

The assay addresses human ether-à-go-go-related gene (hERG) potassium channel (human, UniProt Q12809). Briefly: primary screen, population patch clamp on CHO cells stably expressing hERG.
In the case of `O=C1C(Cc2ccccc2)NC(=S)N1c1ccccc1` (stereo not shown), the “hERG current change (%, negative = inhibition) at 10uM” value was 17.1%.
Regarding `CCCCOc1ccc(N2CC(C(=O)NCc3ccco3)CC2=O)cc1` (stereo not shown), the “hERG current change (%, negative = inhibition) at 10uM” value is reported as -14.5%.
Next, `O=C(NCC1CCCO1)c1cc2cc(F)ccc2[nH]1` (stereo not shown): 9.11%; `O=C(COC(=O)c1cnccn1)c1cccc([N+](=O)[O-])c1`: 14.4%; `CCCCN(C(=O)c1ccco1)C1CCS(=O)(=O)C1` (stereo not shown): 0.36%.
As for `Cc1ccc(C2=NN(C(=O)c3ccccc3F)C(c3ccccc3F)C2)cc1` (stereo not shown), the “hERG current change (%, negative = inhibition) at 10uM” value is given as 19%.
Next, `Cc1[nH]c2ccccc2c1C(=O)CSc1ccccc1`: -10.9%.
Next, `COc1nc(C)ccc1-c1noc(-c2ccccn2)n1`: -0.908%; `CC(C)(C)NC(=O)CSc1nc2ccc(NC(=O)CSc3nnc(N)s3)cc2s1`: 16.2%; `O=C(NCc1ccco1)c1nc2ncccn2n1`: 3.95%.
Next, `Cc1ccc(NC(=O)CCNC(=O)c2ccco2)cc1Cl`: 5.16%; `CCc1ccc(NC2=CC(=O)CC(C)(C)C2)cc1`: -1.02%.
In the case of `COC(=O)c1cc(NC(=O)C(C)c2ccc(CC(C)C)cc2)ccc1O` (stereo not shown), the “hERG current change (%, negative = inhibition) at 10uM” value is reported as -4.56%.
Take `O=C(C1=C[C@@H](c2ccc(C(F)(F)F)cc2)C[C@@H](OCCCCO)O1)N1CCN(Cc2ccc3c(c2)OCO3)CC1`: the “hERG current change (%, negative = inhibition) at 10uM” value is -68.8%.
Next, `CC(=O)Nc1ccc(S(=O)(=O)Nc2nnc(CC(C)(C)C)s2)cc1`: 5.08%.
Next, `Cc1cc(C)c(NC(=O)Cn2c([N+](=O)[O-])cnc2C)c(C)c1`: 9.46%; `CC(=O)Nc1ccc(S(=O)(=O)n2cnc3ccccc32)cc1`: 5.56%.
In the case of `CC(C)Oc1ccc(S(=O)(=O)N2CCOCC2)cc1NC(=O)CN1C(=O)NC2(CCCC2)C1=O` it was -17.8%; in that of `CCOc1ccc(N2C(=O)c3cccnc3C2Nc2ccc(C)cc2)cc1` (stereo not shown), -6.58%; in that of `COCc1nnc(NS(=O)(=O)c2c(C)cc(C)cc2C)s1`, -2.31%.
As for `CN1CCCC(OC(=O)c2ccccc2F)C1.Cl` (stereo not shown), the “hERG current change (%, negative = inhibition) at 10uM” value is 0.787%.
`Cc1cc(C)cc(NC(=O)CSCc2cc(=O)n3ccsc3n2)c1`: the “hERG current change (%, negative = inhibition) at 10uM” value amounted to 13.3%.
Next, `O=c1c2ccccc2nc(-c2ccco2)n1-c1ccncc1`: 2.31%; `CC1=CC(C)(C)N2C(=O)C(=O)c3cc(OC(=O)c4ccco4)cc1c32`: -45.8%; `Cc1ccc(-n2nnc(-c3nccn3C)n2)cc1`: 3.12%.
`COc1ccc(C(c2ccc(OC)cc2)C(Cl)(Cl)Cl)cc1`: the “hERG current change (%, negative = inhibition) at 10uM” value came out at 14.1%.
`O=C(NC1CCCCC1)C1CCC(CNS(=O)(=O)c2ccccc2)CC1` (stereo not shown): the “hERG current change (%, negative = inhibition) at 10uM” value amounted to 10.3%.
Next, `Cc1ccc(NC(=O)NC2CCCCC2)cc1S(=O)(=O)N1CCOCC1`: 8.15%; `COc1cccc2cc(C(=O)C3=C(O)C(=O)N(CCN4CCOCC4)C3c3ccc(C(C)(C)C)cc3)oc12` (stereo not shown): 14.7%; `O=C1CSC(c2cccnc2)N1CCc1ccccn1` (stereo not shown): 16.4%.
In the case of `Cc1ccc(Nc2nc3ccccc3n3cnnc23)cc1C` it was 15.5%; in that of `Nc1cc(S(=O)(=O)N2CCCCC2)ccc1N1CCCCC1`, -1.62%.
Next, `CCCCc1cc(=O)oc2cc(OCC(=O)NCC3CCC(C(=O)O)CC3)ccc12` (stereo not shown): 18%; `O=C(NCC1CCCCC1)c1ccc([N+](=O)[O-])cc1`: -16%.
Turning to `COc1cc(C(=O)OC(C)C(=O)NC2CCCCC2C)c([N+](=O)[O-])cc1OC` (stereo not shown), the “hERG current change (%, negative = inhibition) at 10uM” value is recorded as -11.6%.
Next, `O=S(=O)(c1ccc(Cl)cc1)n1nnc2ccccc21`: 1.44%; `N#Cc1ccc(C(=O)OCC(=O)Nc2cccnc2Cl)cc1`: -17.7%.
In the case of `CCOC(=O)c1sc(NC(=O)c2ccc(OC)cc2)nc1C` it was 15.1%.
In the case of `O=C(CSc1nnc(Cc2ccccc2)o1)Nc1ccc(Br)cn1` it was 15.5%; in that of `Cc1cccc(OCC(=O)N(Cc2ccccc2)c2c(N)n(Cc3ccccc3)c(=O)[nH]c2=O)c1`, -11.2%; in that of `CCCCn1c(=O)cc(N2CCOCC2)[nH]c1=O`, 1.77%.
Turning to `Cc1ccc(NC(=O)C2OCCc3ccccc32)cc1Cl` (stereo not shown), the “hERG current change (%, negative = inhibition) at 10uM” value was 6.53%.
Turning to `Cc1ccc(C(C)C)c(OCCCN2C(=O)NC(C)(C)C2=O)c1`, the “hERG current change (%, negative = inhibition) at 10uM” value is on record as -14.3%.
In the case of `CCn1c(SCC(=O)N2CCC(C)CC2)nnc1-c1ccco1` it was 13%; in that of `CCOc1cc(C=O)ccc1OCCSc1ccc(Cl)cc1`, 4.69%; in that of `CC1(C)CC(=O)C=C(NNC(=O)c2cccnc2)C1`, 19.3%.
Next, `CC(C)CNC(=O)c1c(N)n(Cc2ccco2)c2nc3ccccc3nc12`: -14.1%; `O=C1NC(=Nc2ccc(Cl)cc2)/C(=C/c2ccco2)S1`: 15.5%.
For the molecule `CN(C)CCNC(=O)C1CCN(S(=O)(=O)c2ccc3ccccc3c2)CC1`, the “hERG current change (%, negative = inhibition) at 10uM” value is on record as -13.9%.
As for `COC(=O)c1sccc1NC(=O)c1cccs1`, the “hERG current change (%, negative = inhibition) at 10uM” value is reported as 11.5%.
Consider `Cc1cccc(OCC(=O)N/N=C/CC(C)c2ccccc2)c1C` (stereo not shown), for which the “hERG current change (%, negative = inhibition) at 10uM” value is -1.02%.
In the case of `Cc1cccc(C(=O)Nc2c(C(=O)N3CCN(C)CC3)cnn2-c2ccccc2)c1` it was -15.9%.
On to `O=S(=O)(/N=C(/c1ccccc1)N1CCCCCC1)c1ccccc1`, for which the “hERG current change (%, negative = inhibition) at 10uM” value is recorded as -17%.
`Br.c1ccc(-c2csc(NNC3=NCCCCC3)n2)cc1`: the “hERG current change (%, negative = inhibition) at 10uM” value is on record as -4.59%.
In the case of `CCCNc1nc(-c2cc(-c3ccc(Cl)cc3)on2)cc(C(C)C)n1` it was 28.7%; in that of `CC(=O)O[C@H]1C(=O)[C@@]2(C)C([C@H](OC(=O)c3ccccc3)[C@]3(O)C[C@H](OC(=O)[C@H](O)[C@@H](NC(=O)Cc4ccccc4)c4ccccc4)C(C)=C1C3(C)C)[C@]1(OC(C)=O)CO[C@@H]1C[C@@H]2O` (stereo partly shown), 16.6%; in that of `CCc1cc[n+](C2=C([O-])c3ccccc3C(=O)/C2=N\S(=O)(=O)c2cccs2)cc1`, -11.6%.
In the case of `CCSc1nc(=S)n(Cc2ccccc2)c(C)c1C(C)=O`, the “hERG current change (%, negative = inhibition) at 10uM” value worked out at 4.83%.
Next, `O=C(Nc1ccccc1C(F)(F)F)c1cc(S(=O)(=O)N2CCOCC2)ccc1F`: -18.6%.
Next, `N#C/C(=C\c1cccc([N+](=O)[O-])c1)C(=O)NCc1cccnc1`: -50.8%.
Next, `CCCC(=O)OC(C(=O)Nc1cc(C(F)(F)F)ccc1Cl)c1ccccc1` (stereo not shown): -9.58%; `CCN1CCN(C(=O)CSc2cc(=O)n(CC)c3ccccc23)CC1`: -6.49%.
`COc1ccc(CCN2C(=O)CSC2=S)cc1OC`: the “hERG current change (%, negative = inhibition) at 10uM” value is listed as 12.8%.
Take `COc1ccc(-c2cc(C(=O)NCCCN3CCCC3=O)c3ccccc3n2)cc1OC`: the “hERG current change (%, negative = inhibition) at 10uM” value was -64.7%.
In the case of `CSc1ccccc1NC(=O)c1ccc(N2CC3CC(C2)c2cccc(=O)n2C3)c(NC(=O)c2ccncc2)c1` (stereo not shown) it was -30.1%; in that of `Cc1cc2nnc(SCC(=O)Nc3cccc(S(=O)(=O)N4CCOCC4)c3)n2c2ccccc12`, -14.4%; in that of `C/C(=N\NC(=O)CNc1ccccc1)c1ccccc1`, -12.8%.
In the case of `O=C1C=C(c2cccs2)CC(c2cccs2)C1n1cnc([N+](=O)[O-])c1` (stereo not shown) it was -22.8%.
Next, `CC(C)c1ccc(NC(=O)c2cccnc2)cc1`: 2.13%; `O=C(Nc1cccc(F)c1)c1ccc2ncsc2c1`: 9.49%.
As for `Cc1cccn2cc(-c3ccc(F)cc3)nc12`, the “hERG current change (%, negative = inhibition) at 10uM” value was -14.1%.
On to `CCOc1ccccc1C(c1c(O)nc(SC)[nH]c1=O)c1c(O)nc(SC)[nH]c1=O`, for which the “hERG current change (%, negative = inhibition) at 10uM” value is 5.67%.
Next, `CC(=O)N/C(=C\c1ccccc1)C(=O)OC(C)C(=O)NCc1ccccc1` (stereo not shown): -8.68%; `Cc1ccc(OCCOc2cccc(Br)c2)c([N+](=O)[O-])n1`: 0.558%.
Next, `Oc1ccc(-c2cnc3ccccc3n2)cc1`: 2.13%; `COc1ccc(OC)c(NC(=O)c2ccc(S(=O)(=O)N3CCOCC3)cc2)c1`: 17.2%.
In the case of `COc1ccc2c(CC(=O)N[C@@H](Cc3ccccc3)C(=O)O)cc(=O)oc2c1C` it was 1.22%.
For the molecule `Nc1ccccc1-c1nnn(CC(=O)Nc2ccc3c(c2)OCCO3)n1`, the “hERG current change (%, negative = inhibition) at 10uM” value is 16.5%.
`Cc1ccccc1NC(=O)Cc1nc(COC(=O)c2cccnc2Cl)cs1`: the “hERG current change (%, negative = inhibition) at 10uM” value was -5.06%.
Regarding `Oc1cccc(/C=N/NC(=S)Nc2cccnc2)c1O`, the “hERG current change (%, negative = inhibition) at 10uM” value is 13%.
In the case of `Nc1nonc1-c1noc(-c2ccc(Br)o2)n1` it was -9.48%.
As to `Cc1noc(C)c1S(=O)(=O)N1CCCC(C(=O)N2CCc3ccccc3C2)C1` (stereo not shown), the “hERG current change (%, negative = inhibition) at 10uM” value is given as -36.4%.
In the case of `COC(=O)c1cccc(NC(=O)CC2C(=O)NCCN2C(=O)Nc2cc(C)cc(C)c2)c1` (stereo not shown), the “hERG current change (%, negative = inhibition) at 10uM” value was 11%.
Next, `O=C(C1=C(O)C(=O)N(CCN2CCOCC2)C1c1ccc(Br)cc1)c1cc2ccccc2o1` (stereo not shown): 12.4%.
Next, `O=C(Cn1nnc(-c2ccc(F)cc2)n1)N1CCCCC1`: 12.8%; `COc1ccc(Cn2nnnc2CN(Cc2cc3cccc(C)c3[nH]c2=O)C2CCCC2)cc1`: -31%; `COc1cccc(C2SCC(=O)N2c2ccc(Br)cc2)c1OC` (stereo not shown): -2.69%.
Next, `CCCCCn1c(N2CCN(Cc3ccccc3)CC2)nc2c1c(=O)[nH]c(=O)n2C`: -74.8%.
